# From the supplement of paper PMC8728848
# Some of the results follow.
# Tests used:
# Assay in all cases: glycan array binding signal (z-score within array); higher = stronger binding
# Details in all cases: glycan notation: IUPAC condensed, linker removed
# [1] = target: Fuc(a1-2)Gal(b1-4)GlcNAc(b1-3)Gal(b1-4)GlcNAc(b1-3)Gal(b1-4)GlcNAc
# Procedure, shortened: (§1)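 The binding signal is a Z-score computed within each array. Data were drawn from 3228 arrays in the Consortium for Functional Glycomics database, restricted to those with a known protein sequence. Scores were averaged over arrays of the same protein sequence at different concentrations or buffers, and over linkers, and negative values can be taken as non-binding.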
# [2] = target: Fuc(a1-2)Gal(b1-4)GlcNAc(b1-3)GalNAc
# Procedure, shortened: as §1
# [3] = target: Fuc(a1-2)Gal(b1-4)GlcNAc(b1-3)[Fuc(a1-2)Gal(b1-4)GlcNAc(b1-6)]GalNAc
# Procedure, shortened: as §1
# [4] = target: Fuc(a1-2)Gal(b1-4)GlcNAc(b1-3)[Fuc(a1-3)[Gal(b1-4)]GlcNAc(b1-6)]Gal(b1-4)Glc
# Procedure, shortened: as §1
# [5] = target: Fuc(a1-2)Gal(b1-4)GlcNAc(b1-6)GalNAc
# Procedure, shortened: as §1
# [6] = target: Fuc(a1-2)Gal(b1-4)GlcNAc6S
# Procedure, shortened: as §1
# [7] = target: Fuc(a1-2)Gal(b1-4)[Fuc(a1-3)]GlcNAc
# Procedure, shortened: as §1
# [8] = target: Fuc(a1-2)Gal(b1-4)[Fuc(a1-3)]GlcNAc(b1-2)Man(a1-3)[Fuc(a1-2)Gal(b1-4)[Fuc(a1-3)]GlcNAc(b1-2)Man(a1-6)]Man(b1-4)GlcNAc(b1-4)[Fuc(a1-6)]GlcNAc
# Procedure, shortened: as §1
# [9] = target: Fuc(a1-2)Gal(b1-4)[Fuc(a1-3)]GlcNAc(b1-2)[Fuc(a1-2)Gal(b1-4)[Fuc(a1-3)]GlcNAc(b1-4)]Man(a1-3)[Fuc(a1-2)Gal(b1-4)[Fuc(a1-3)]GlcNAc(b1-2)Man(a1-6)]Man(b1-4)GlcNAc(b1-4)GlcNAc
# Procedure, shortened: as §1
# [10] = target: Fuc(a1-2)Gal(b1-4)[Fuc(a1-3)]GlcNAc(b1-3)Gal(b1-4)[Fuc(a1-3)]GlcNAc
# Procedure, shortened: as §1
# [11] = target: Fuc(a1-2)Gal(b1-4)[Fuc(a1-3)]GlcNAc(b1-3)Gal(b1-4)[Fuc(a1-3)]GlcNAc(b1-3)Gal(b1-4)[Fuc(a1-3)]GlcNAc
# Procedure, shortened: as §1
# [12] = target: Fuc(a1-2)Gal(b1-4)[Fuc(a1-3)]GlcNAc(b1-3)GalNAc
# Procedure, shortened: as §1
# [13] = target: Fuc(a1-2)Gal(b1-4)[Fuc(a1-3)]GlcNAc(b1-3)[Neu5Ac(a2-6)Gal(b1-4)GlcNAc(b1-6)]Gal(b1-4)Glc
# Procedure, shortened: as §1
# [14] = target: Fuc(a1-2)Gal3S(b1-4)GlcNAc
# Procedure, shortened: as §1
# [15] = target: Fuc(a1-2)Gal6S(b1-3)GlcNAc
# Procedure, shortened: as §1
# [16] = target: Fuc(a1-2)Gal6S(b1-3)GlcNAc6S
# Procedure, shortened: as §1
# Fuc(a1-2)Gal6S(b1-4)Glc = target: Fuc(a1-2)Gal6S(b1-4)Glc
# Procedure, shortened: as §1
# [17] = target: Fuc(a1-2)Gal6S(b1-4)Glc6S
# Procedure, shortened: as §1
# Fuc(a1-2)[Gal(a1-3)]Gal = target: Fuc(a1-2)[Gal(a1-3)]Gal
# Procedure, shortened: as §1
# [18] = target: Fuc(a1-2)[Gal(a1-3)]Gal(b1-3)GalNAc
# Procedure, shortened: as §1
# [19] = target: Fuc(a1-2)[Gal(a1-3)]Gal(b1-3)GalNAc(b1-3)Gal(a1-4)Gal(b1-4)Glc
# Procedure, shortened: as §1
# [20] = target: Fuc(a1-2)[Gal(a1-3)]Gal(b1-3)GlcNAc
# Procedure, shortened: as §1
# [21] = target: Fuc(a1-2)[Gal(a1-3)]Gal(b1-3)GlcNAc(b1-2)Man(a1-3)[Fuc(a1-2)[Gal(a1-3)]Gal(b1-3)GlcNAc(b1-2)Man(a1-6)]Man(b1-4)GlcNAc(b1-4)GlcNAc
# Procedure, shortened: as §1
# [22] = target: Fuc(a1-2)[Gal(a1-3)]Gal(b1-3)GlcNAc(b1-2)Man(a1-3)[Fuc(a1-2)[Gal(a1-3)]Gal(b1-3)GlcNAc(b1-2)Man(a1-6)]Man(b1-4)GlcNAc(b1-4)[Fuc(a1-6)]GlcNAc
# Procedure, shortened: as §1
# [23] = target: Fuc(a1-2)[Gal(a1-3)]Gal(b1-3)GlcNAc(b1-3)GalNAc
# Procedure, shortened: as §1
# [24] = target: Fuc(a1-2)[Gal(a1-3)]Gal(b1-3)GlcNAc(b1-6)GalNAc
# Procedure, shortened: as §1
# [25] = target: Fuc(a1-2)[Gal(a1-3)]Gal(b1-4)Glc
# Procedure, shortened: as §1
# [26] = target: Fuc(a1-2)[Gal(a1-3)]Gal(b1-4)GlcNAc
# Procedure, shortened: as §1
# [27] = target: Fuc(a1-2)[Gal(a1-3)]Gal(b1-4)GlcNAc(b1-2)Man
# Procedure, shortened: as §1
# [28] = target: Fuc(a1-2)[Gal(a1-3)]Gal(b1-4)GlcNAc(b1-2)Man(a1-3)[Fuc(a1-2)[Gal(a1-3)]Gal(b1-4)GlcNAc(b1-2)Man(a1-6)]Man(b1-4)GlcNAc(b1-4)GlcNAc
# Procedure, shortened: as §1
binder,measurement,setting,value
EULS2 M2 (Oryza sativa) (protein) MVYCRANPNYAMTARNGAVVLAPANPKDEYQHWIKDMRWSTSIKDEEGYPAFALVNKATGQAIKHSLGQSHPVRLVPYNPEVMDESVLWTESRDVGNGFRCIRMVNNIYLNFDAFHGDKYHGGVRDGTDIVLWKLCEGDSQRWKIQPYYILEQKLISEEDLNSAVDHHHHHH,glycan array binding signal (z-score),[1],-0.572
same,glycan array binding signal (z-score),[2],-0.499
same,glycan array binding signal (z-score),[3],-0.42
same,glycan array binding signal (z-score),[4],-0.337
same,glycan array binding signal (z-score),[5],-0.191
same,glycan array binding signal (z-score),[6],0.018
same,glycan array binding signal (z-score),[7],0.039
same,glycan array binding signal (z-score),[8],-0.258
same,glycan array binding signal (z-score),[9],-0.119
same,glycan array binding signal (z-score),[10],-0.078
same,glycan array binding signal (z-score),[11],0.542
same,glycan array binding signal (z-score),[12],-0.203
same,glycan array binding signal (z-score),[13],-0.288
same,glycan array binding signal (z-score),[14],-0.237
same,glycan array binding signal (z-score),[15],-0.175
same,glycan array binding signal (z-score),[16],1.7
same,glycan array binding signal (z-score),Fuc(a1-2)Gal6S(b1-4)Glc,-0.495
same,glycan array binding signal (z-score),[17],0.838
same,glycan array binding signal (z-score),Fuc(a1-2)[Gal(a1-3)]Gal,-0.44
same,glycan array binding signal (z-score),[18],-0.443
same,glycan array binding signal (z-score),[19],-0.453
same,glycan array binding signal (z-score),[20],0.163
same,glycan array binding signal (z-score),[21],-0.484
same,glycan array binding signal (z-score),[22],-0.058
same,glycan array binding signal (z-score),[23],-0.424
same,glycan array binding signal (z-score),[24],0.206
same,glycan array binding signal (z-score),[25],0.327
same,glycan array binding signal (z-score),[26],0.24
same,glycan array binding signal (z-score),[27],-0.421
same,glycan array binding signal (z-score),[28],-0.309
